The values below come from the supplement of paper PMC4604168 (melanoma cell lines).

The list shows a part of the results. Repeats are few or missing, and single values can be far off.
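Further: cell number obtained by counting DAPI-stained nuclei in high-throughput microscope images with image analysis software, screen run in 1,536-well plates.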

The subject of this assay is MZ2-MEL. Nature of the assay: cell count relative to DMSO control; melanoma cells; higher = more viable cells. The settings on record: library dose: low library concentration; 72 h.
In turn, `O=C1NC(=O)/C(=C/c2ccc(-c3ccc(F)cc3O)o2)S1` + O=C(Oc1ccc([N+](=O)[O-])cc1)N1CCC(C(O)(c2ccc3c(c2)OCO3)c2ccc3c(c2)OCO3)CC1 [JZL184] (first compound 1 µM, partner dose 1 µM) gave a cell count of 104%.

In the case of `O=C(O)c1ccc2c(c1)nc(Nc1cccc(Cl)c1)c1ccncc12` + C[As](C)SC[C@H](NC(=O)CC[C@H](N)C(=O)O)C(=O)NCC(=O)O [Darinaparsin] (first compound 0.4 µM, partner dose 0.4 µM), the cell count worked out at 94.1%.

Turning to `CN1CCN(c2ccc3nc(-c4c(N)c5c(F)cccc5[nH]c4=O)[nH]c3c2)CC1` [Dovitinib] + C/C(O)=C(\C#N)C(=O)Nc1cc(Br)ccc1Br [LFM-A13] (first compound 0.1 µM, partner dose 2 µM), the cell count came to 83.9%.

Regarding `O=C(O)c1ccc2c(c1)nc(Nc1cccc(Cl)c1)c1ccncc12` + Cc1cc(SCc2sc(-c3ccc(C(F)(F)F)c(F)c3)nc2C)ccc1OCC(=O)O [GW0742] (first compound 0.4 µM, partner dose 2 µM), the cell count is 87.8%.

As for `CN1CCN(c2ccc3nc(-c4c(N)c5c(F)cccc5[nH]c4=O)[nH]c3c2)CC1` [Dovitinib] + C[As](C)SC[C@H](NC(=O)CC[C@H](N)C(=O)O)C(=O)NCC(=O)O [Darinaparsin] (first compound 0.1 µM, partner dose 0.4 µM), the cell count stood at 89.6%.

Compound `Cc1cc(Nc2cc(N3CCN(C)CC3)nc(Sc3ccc(NC(=O)C4CC4)cc3)n2)n[nH]1` [Tozasertib] + N.N.[Cl][Pt][Cl] [cisplatin] (first compound 0.006 µM, partner dose 1.6 µM) came in with a cell count of 0.893%.

In the case of `CN1CCN(c2ccc3nc(-c4c(N)c5c(F)cccc5[nH]c4=O)[nH]c3c2)CC1` [Dovitinib] + O=C(Oc1ccc([N+](=O)[O-])cc1)N1CCC(C(O)(c2ccc3c(c2)OCO3)c2ccc3c(c2)OCO3)CC1 [JZL184] (first compound 0.1 µM, partner dose 1 µM), the cell count turned out to be 88.2%.

Turning to `Clc1ccc(Nc2nnc(Cc3ccncc3)c3ccccc23)cc1` [vatalanib] + C/C(O)=C(\C#N)C(=O)Nc1cc(Br)ccc1Br [LFM-A13] (first compound 2 µM, partner dose 2 µM), the cell count is 88.1%.

For the compound `CC(C)C[C@H](NC(=O)[C@H](Cc1ccccc1)NC(=O)c1cnccn1)B(O)O` [Bortezomib] + C[As](C)SC[C@H](NC(=O)CC[C@H](N)C(=O)O)C(=O)NCC(=O)O [Darinaparsin] (first compound 0.001 µM, partner dose 0.4 µM), the cell count was found to be 58.1%.

`Cc1cc([N+](=O)[O-])ccc1NS(=O)(=O)c1cc(Cl)ccc1Cl` + O=C(Oc1ccc([N+](=O)[O-])cc1)N1CCC(C(O)(c2ccc3c(c2)OCO3)c2ccc3c(c2)OCO3)CC1 [JZL184] (first compound 1 µM, partner dose 1 µM) came in with a cell count of 95.7%.

`Cc1cc(Nc2cc(N3CCN(C)CC3)nc(Sc3ccc(NC(=O)C4CC4)cc3)n2)n[nH]1` [Tozasertib] + Cn1cc(C2=C(c3cn(C4CCN(Cc5ccccn5)CC4)c4ccccc34)C(=O)NC2=O)c2ccccc21 [Enzastaurin] (first compound 0.006 µM, partner dose 0.8 µM) yielded a cell count of 94.7%.

`Cc1cc(Nc2cc(N3CCN(C)CC3)nc(Sc3ccc(NC(=O)C4CC4)cc3)n2)n[nH]1` [Tozasertib] + O=C(Oc1ccc([N+](=O)[O-])cc1)N1CCC(C(O)(c2ccc3c(c2)OCO3)c2ccc3c(c2)OCO3)CC1 [JZL184] (first compound 0.006 µM, partner dose 1 µM): the cell count is 103%.

On to `Oc1cc(-c2nc(-c3ccccc3)[nH]c2-c2ccncc2)ccc1Cl` + C/C(O)=C(\C#N)C(=O)Nc1cc(Br)ccc1Br [LFM-A13] (first compound 0.2 µM, partner dose 2 µM), for which the cell count was determined as 85.8%.

`O=C(O)C(=O)Nc1sc2c(c1C(=O)O)CCNC2` + O=C(Oc1ccc([N+](=O)[O-])cc1)N1CCC(C(O)(c2ccc3c(c2)OCO3)c2ccc3c(c2)OCO3)CC1 [JZL184] (first compound 1.66667 µM, partner dose 1 µM) yielded a cell count of 103%.

`C#Cc1cccc(Nc2ncnc3cc(OCCOC)c(OCCOC)cc23)c1` [erlotinib] + C[As](C)SC[C@H](NC(=O)CC[C@H](N)C(=O)O)C(=O)NCC(=O)O [Darinaparsin] (first compound 0.8 µM, partner dose 0.4 µM) showed a cell count of 89.6%.
